Measured values as given in paper PMC4336329 (PLoS ONE, 2015).
Hit rate of the full screen: of about 310,000 compounds, about 14,000 (4.5%) showed an effect of 50% or more. Effects have a minus sign here. Some of the results follow.

biological target: human ether-à-go-go-related gene (hERG) potassium channel (human, UniProt Q12809); assay: primary screen, population patch clamp on CHO cells stably expressing hERG
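Also: peak tail current of the secondary pulse compared with the same well before compound.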

human ether-à-go-go-related gene (hERG) potassium channel, sequence (Q12809 whole entry, looked up): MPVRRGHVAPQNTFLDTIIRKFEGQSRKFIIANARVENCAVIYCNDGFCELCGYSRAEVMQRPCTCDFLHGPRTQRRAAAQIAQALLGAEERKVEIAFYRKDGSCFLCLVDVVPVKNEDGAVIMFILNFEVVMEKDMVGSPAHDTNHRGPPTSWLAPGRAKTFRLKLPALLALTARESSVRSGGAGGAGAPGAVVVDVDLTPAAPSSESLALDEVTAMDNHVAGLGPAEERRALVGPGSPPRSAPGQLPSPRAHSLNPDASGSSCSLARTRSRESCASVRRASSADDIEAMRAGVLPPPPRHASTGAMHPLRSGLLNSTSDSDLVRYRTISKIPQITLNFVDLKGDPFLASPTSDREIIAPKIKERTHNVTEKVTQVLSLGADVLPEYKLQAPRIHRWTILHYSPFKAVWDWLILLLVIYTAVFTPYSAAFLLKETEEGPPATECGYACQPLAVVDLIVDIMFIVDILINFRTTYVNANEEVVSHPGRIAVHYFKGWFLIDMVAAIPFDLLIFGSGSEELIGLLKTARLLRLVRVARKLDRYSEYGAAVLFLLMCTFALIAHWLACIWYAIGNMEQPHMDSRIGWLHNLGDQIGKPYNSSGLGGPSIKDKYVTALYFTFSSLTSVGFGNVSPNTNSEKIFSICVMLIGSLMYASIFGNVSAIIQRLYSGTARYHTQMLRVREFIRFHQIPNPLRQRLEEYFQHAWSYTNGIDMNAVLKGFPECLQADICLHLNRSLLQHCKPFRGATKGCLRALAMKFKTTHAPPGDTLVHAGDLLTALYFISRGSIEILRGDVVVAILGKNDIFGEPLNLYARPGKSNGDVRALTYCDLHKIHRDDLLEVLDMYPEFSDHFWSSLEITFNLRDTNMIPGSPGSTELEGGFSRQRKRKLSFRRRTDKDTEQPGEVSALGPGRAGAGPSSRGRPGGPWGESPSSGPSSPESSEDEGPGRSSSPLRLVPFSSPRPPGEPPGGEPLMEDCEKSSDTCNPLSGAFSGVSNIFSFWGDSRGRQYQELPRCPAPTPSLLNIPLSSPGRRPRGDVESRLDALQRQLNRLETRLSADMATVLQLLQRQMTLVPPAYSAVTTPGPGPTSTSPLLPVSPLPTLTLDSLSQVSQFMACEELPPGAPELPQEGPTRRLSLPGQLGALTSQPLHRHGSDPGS

Row | Compound | hERG current change (%, negative = inhibition) at 10uM
1 | Cc1cccc(C(CC(=O)O)n2cccc2)c1 (stereo not drawn) | 8.11%
2 | COC(=O)c1ccc(-c2csc(NC(=O)C3=COCCO3)n2)cc1 | 10.6%
3 | O=C(NC(Cc1ccccc1)C(=O)O)/C(=C/c1ccc([N+](=O)[O-])cc1)NC(=O)c1ccccc1 (stereo not drawn) | 11.1%
4 | COc1ccc(C2C3=C(CC(C)(C)CC3=O)N(CC(=O)O)C3=C2C(=O)CC(C)(C)C3)cc1OC | 2.83%
5 | Cc1cccc(N=C2NC(=O)/C(=C/c3cn(C)c4ccccc34)S2)c1 | 22.5%
6 | [N-]=[N+]=NC[C@H](Cc1ccccc1)N1CC[C@@H](OCc2ccccc2)CCC1=O | -13.3%
7 | O=C(NCCc1c[nH]c2ccccc12)C(=O)NCC(c1ccco1)N1CCN(c2ccccc2F)CC1 (stereo not drawn) | -0.657%
8 | CCc1nn(CC(=O)N2CCN(C)CC2)c(=O)c2cccn12 | -10.5%
9 | COC(=O)c1ccc(CN2CCC(CO)(CCOc3ccccc3)CC2)cc1 | -80.1%
10 | CCNc1nc(C)cc(COC)c1C#N | -0.846%
11 | CCCn1c(SCCC(=O)O)nc2ccccc21 | 8.62%
12 | CCOc1ccc2oc(C(=O)OCC(=O)NC(=O)NC3CCCC3)c(C)c2c1 | -4.99%
13 | COc1cc(/C=N/n2nnnc2Nc2ccccc2)cc(OC)c1OC | -19.9%
14 | CCc1cccc(C)c1NS(=O)(=O)c1cc(Br)cnc1N | 8.34%
15 | CC(=O)NC1=NN(C(C)=O)C2(CCCC2)S1 | 13.4%
16 | Cc1ccc(S(=O)(=O)N2CCCCC2C(=O)N2CCN(Cc3ccccc3)CC2)cc1.Cl (stereo not drawn) | -42.5%
17 | COc1ccc(NC(=O)CN2CCN(S(=O)(=O)c3ccc(Cl)cc3)CC2)cc1 | -79.7%
18 | COc1ccc(CNC(=O)CCCn2nc([N+](=O)[O-])cc2C)cc1 | -12.9%
19 | COc1cc(CN(C)Cc2nc3cc(C(F)(F)F)ccc3c(=O)[nH]2)ccc1OC(F)F | -66.5%
20 | CN1CCN(C(=O)CN(C)S(=O)(=O)c2ccc3ccccc3c2)CC1 | 3.1%
21 | COc1ccccc1CN(C)C(=O)c1ccc(S(=O)(=O)NCc2ccco2)cc1 | -14.9%
22 | CSc1ccccc1OCc1cc(C(=O)NCCC2=CCCCC2)no1 | -0.22%
23 | COc1ccc(-n2c(N)cc(=O)[nH]c2=O)cc1 | 8.55%

Row | Compound | hERG current change (%, negative = inhibition) at 10uM
24 | Cc1cccc(N(C(=O)Cc2cccs2)C(C(=O)NCc2ccco2)c2ccncc2)c1 (stereo not drawn) | -8.62%
25 | CC(C)Oc1cccc(C(=O)C2CCCN(Cc3cccn3-c3cccnc3)C2)c1 (stereo not drawn) | -27.7%
26 | Cn1c(C(=O)OCC(=O)NCc2ccc(F)cc2)cc2occc21 | -11.1%
27 | CCn1cc(C(=O)NCCc2ccc(OC)c(OC)c2)c(=O)c2cc(S(=O)(=O)N3CCOCC3)ccc21 | -5.39%
28 | CC(C)(C)c1ccc2c(c1)OC(C(=O)N/N=C\c1ccncc1)CO2 (stereo not drawn) | 11.2%
29 | Cc1nn(Cc2ccccc2)c(C)c1/C=N/NC(=O)c1ccccc1O | -13.2%
30 | CC(C)CCCN1CCN=C1N(C)C | 8.91%
31 | CCCOc1ccc(S(=O)(=O)NCc2ccc(OC)cc2)cc1 | -23.5%
32 | COc1cc(SC)ccc1C(=O)NCCCn1ccnc1 | -18.4%
33 | COc1ccc(C(=O)NCC2CCCCC2)cc1S(=O)(=O)N1CCCC1 | -9.01%
34 | Cc1ccccc1NC(=O)c1c2c(nc3ccccc13)CCC2 | -27.2%
35 | Cn1cnc2c1c(=O)n(Cc1ccc(Cl)cc1Cl)c(=O)n2C | -5.11%
36 | CC(C)NC(=S)N(CCc1ccncc1)C(C)C | 17.3%
37 | O=S(=O)(c1ccccc1)N(Cc1ccccc1)c1ccccn1 | 10.8%
38 | CN(C)N1C(N)=C(C#N)C(c2cccs2)C2=C1CCCC2=O (stereo not drawn) | 6.91%
39 | CCN1CCN(c2ccc([N+](=O)[O-])c(Sc3nc4ccccc4[nH]3)c2)CC1 | -60.4%
40 | O=C1CC(c2ccc(F)c(Br)c2)C2=C(CCCC2=O)N1 (stereo not drawn) | -4.62%
41 | CCc1ccccc1NC(=S)N1CCC(NC(=O)c2ccc(OC)cc2)CC1 | -13.9%
42 | Cc1ccc(CN2CCN(C(=O)CC(C)C)CC2)cc1 | 6.46%
43 | COc1cccc(-c2nnc(-c3ccccc3[N+](=O)[O-])o2)c1 | 7.36%
44 | Cc1ccc(C2C(C(=O)c3cc4ccccc4o3)=C(O)C(=O)N2c2cc(C)on2)cc1 (stereo not drawn) | 19.3%
45 | CCOCCOC(=O)c1[nH]c2c(c1C)C(=O)CC(c1ccc(OC)c(OC)c1)C2 (stereo not drawn) | 3.38%
